Experimental findings from the supplement of paper PMC11417369 are described below.

± gives the standard deviation of the averaged measurements. The list shows a part of the results.

The subject of the experiment is PfAP2-LT AP2 domain (GST-tagged). Description: gcPBM binding intensity (ln(normalized median fluorescence intensity)); higher = stronger DNA binding. In outline: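 GST-tagged P. falciparum DNA-binding domains produced in E. coli were incubated for 1 h on an Agilent 4 × 180k array of primer-extended double-stranded 36-bp intergenic genomic probes with negative controls. Binding intensity is the highest Masliner-normalised natural-log median intensity across replicate spots of either probe orientation, with bound protein detected by Alexa488 anti-GST antibody at 488 nm.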
With “AAAAAGTTACATGGTGGTACTCAAATAAAATATTCT [XGTACX_site5993]”, the “gcPBM binding intensity (ln)” value was 8.74 ± 0.45.

Regarding “ATTATCCATGCATTTACACACACACTAAAAAAAATT [CACACA_site7848]”, the “gcPBM binding intensity (ln)” value came out at 9.49 ± 0.14. “ATGTATATATATTTGTGTACATATTTAGGAAATAAA [XGTACX_site2904]”: the “gcPBM binding intensity (ln)” value stood at 8.78 ± 0.47.

Take “AATTAAATTTATATGAATGTCAATTATATTGTTATA [XGTACX_negctrl_site261]”: the “gcPBM binding intensity (ln)” value turned out to be 8.47 ± 0.47.

As to “TTTTTTTTAGTATGAACACACATATATATTATAAAA [CACACA_site2935]”, the “gcPBM binding intensity (ln)” value worked out at 8.41 ± 0.37. For “TATTATGTTATATATTGTACATGTTTATTGAAACAA [XGTACX_site5605]” the value was 8.55 ± 0.39; for “TTTATATGTGAAAAAAGTACAAGGAAAAAATTAAAC [XGTACX_site7269]”, 8.74 ± 0.57.

“TATTAACAAAATATAGCACACATAAATATATATTTA [CACACA_site8005]”: the “gcPBM binding intensity (ln)” value came to 8.75 ± 0.41. Next, “TTTTTTTTTTTTTGATGTACATAAATTAAGAATTAT [XGTACX_site7789]”: 8.41 ± 0.42. For “AATATATCTTTTTACGGCAACCATATTTTTCCCATT [CACACA_negctrl_site963]” the value was 8.84 ± 0.47. For “TATATATTTGTAACGGGTACGTAGGTGTATATTCCA [XGTACX_site6028]” the value was 8.82 ± 0.46; for “AGCCACGTGGTATATACACACATAATCAAATAAAAT [CACACA_site9364]”, 9.43 ± 0.45. On to “TTTTTTTTTTTTTTGACACACATAATAAAATACAAA [CACACA_site3080]”, for which the “gcPBM binding intensity (ln)” value is 8.4 ± 0.38. With “AATAAGCATATACAAACATGCATACATATAAATAAA [TGCATGCA_site338]”, the “gcPBM binding intensity (ln)” value was 8.94 ± 0.42.

Take “GAAACGATTTAATACACACACGTATTATAGATATAT [CACACA_site6666]”: the “gcPBM binding intensity (ln)” value is 9.25 ± 0.34. For “ATAAAACAACACACTTGTACTAATTTTTTTTTTTTT [XGTACX_site8377]” the value was 8.79 ± 0.39. For “TAATTTATAAGGTATAACAACAATTGCATCTATCAC [XGTACX_negctrl_site314]” the value was 8.68 ± 0.44; for “TGAATAAATAGACACACACACATATATAAATATGTA [CACACA_site6159]”, 9.66 ± 0.25; for “AAATATTTTAACGAGAGTACATAATAACAATTTATG [XGTACX_site3865]”, 8.61 ± 0.43. As to “GAAAGAATAAAATTTACACACATATATAAATACATA [CACACA_site5273]”, the “gcPBM binding intensity (ln)” value amounted to 9.07 ± 0.44. Next, “TTTTTTTTTTTTTATTGTACTAAATTATAGAGGGGA [XGTACX_site2609]”: 8.39 ± 0.38. With “AAAAAAAAAAAATACACACACACATATATATATATA [CACACA_site731]”, the “gcPBM binding intensity (ln)” value stood at 9.84 ± 0.29. For “AAAGAAAGGAATACGACACACAAAAAAAAAATATAT [CACACA_site1934]” the value was 9.31 ± 0.59. For “TAGTTGCACATGTATACACACAAAAAATATTTTATG [CACACA_site475]” the value was 9.04 ± 0.4; for “AATAAATATAGGTACACACACAAATATGTACATATC [CACACA_site6976]”, 9.46 ± 0.33; for “AAGAAACCATAATATGCATGCACATATTAATAAATA [TGCATGCA_site693]”, 8.99 ± 0.47. For “AAGTGGTTATAATCAACACACGTGGAATGTACTTTA [CACACA_site3700]” the value was 8.99 ± 0.45; for “TTATAATTTTAATGTGCACACAATTAAAATATTATA [CACACA_site5172]”, 8.8 ± 0.35; for “TATAAATAAATATACACACACACATATAAATATGTA [CACACA_site6504]”, 9.63 ± 0.22.

For the sequence “TATTGACAAAAAAAAAAAAGGTAAAAAAGAAAGAAA [GTGCAC_negctrl_site418]”, the “gcPBM binding intensity (ln)” value is 8.54 ± 0.62. For “TTTTGTTTATGTGTGCATTATATTATATTTTTTATT [TGCATGCA_negctrl_site146]” the value was 9.07 ± 0.61; for “TGTAAGAAATTGAGCGCACACATACATCTGTGGGAT [CACACA_site4945]”, 9.35 ± 0.46; for “CTACATACAAGAATTAAACACACACTAATTATAAAT [CACACA_site8986]”, 9.3 ± 0.38. With “CCTCAATATTCACATACACACAATATCATCGAAGTA [CACACA_site1676]”, the “gcPBM binding intensity (ln)” value came to 9.07 ± 0.4. Regarding “ATATGGGTAATGAATTGTACTCTTTCTTGTTGTTCT [XGTACX_site4487]”, the “gcPBM binding intensity (ln)” value came out at 9.06 ± 0.54. For “TGTAATAAATAGTACACACACACATATTTATATATC [CACACA_site6770]” the value was 9.72 ± 0.23; for “GTATAATTTTCGTATTCACACAAGAATATACTACAT [CACACA_site4877]”, 8.91 ± 0.45.

Consider “AATATATGTATGTACGCATGTATGTATCTATGTATT [TGCATGCA_site389]”, for which the “gcPBM binding intensity (ln)” value was determined as 9.04 ± 0.39. Next, “TTATAATTATATACATGTACATATAATACATATATA [XGTACX_site8904]”: 8.65 ± 0.33. Consider “ATAATTATATATTTATGTACGCATAAATATTTATAT [XGTACX_site5765]”, for which the “gcPBM binding intensity (ln)” value worked out at 8.64 ± 0.39. Next, “TATTTATTGTGATACTACTATTATTTTATGATTAAA [CACACA_negctrl_site284]”: 8.5 ± 0.42; “ACCCAATTTTAAAATGAACACACATGTTTTTCTTAC [CACACA_site8246]”: 9.02 ± 0.39. For “TATACAACTTTATGAAGTACAAAAAGTTCTATATAT [XGTACX_site3866]” the value was 8.53 ± 0.33; for TTGTTTTATTATTCGATGCACTACAGAAATATATTC, 8.72 ± 0.4; for “TATATATAACTTTATTGTACAAAATATTATGTATTC [XGTACX_site981]”, 8.76 ± 0.36.
